Patent EP1951748B1, “HEPATITIS C VIRUS VARIANTS” (Vertex Pharmaceuticals, Inc., priority 2005, dated 2007)

Legend:
[1] = test system: HCV NS3 protease V36M, R155K; type: biochemical; conditions: enzyme IC50 of V36M, R155K compared to the genotype 1a HCV-H reference strain; 15 min
[2] = test system: HCV NS3 protease V36M, R155T; type: biochemical; conditions: enzyme IC50 of V36M, R155T compared to the genotype 1a HCV-H reference strain; 15 min

COc1ccc2c(O[C@@H]3C[C@H]4C(=O)N[C@]5(C(=O)O)C[C@H]5/C=C\CCCCC[C@H](NC(=O)OC5CCCC5)C(=O)N4C3)cc(-c3csc(NC(C)C)n3)nc2c1 [BILN 2061]
Fold change [1]: >183
Fold change [2]: 158
